From PubChem BioAssay AID1347120 (National Center for Advancing Translational Sciences (NCATS), 2019)
Hit rate of the full screen: of about 390,000 compounds, about 930 (0.24%) were called active. The inconclusive results got no clear call from the source; some entries with a clear call stand among them for comparison. Calls come from the whole dose curve; as a rule, active = well fitted activation curve with a large enough effect; inconclusive = small, poorly fitted or top-dose-only effect; inactive = no such curve, though single readings can be large or run the other way. Where the call is inconclusive, the potency comes from a doubtful curve fit. Where a structure was tested more than once in an assay, its records may differ in their call.

Assay: qHTS for Suppressors of FUS Proteinopathy: Primary screen using FUS-linked yeast assay; note: nearly all actives have a fitted effect of over 55% in size;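 for growth rescue (activation): plate controls were DMSO vehicle for no effect and reference control for full effect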
Conditions: S. cerevisiae FUS-expressing, OD600, 24 h; Potency: growth rescue; growth rescue (activation): at 76.6 µM (top of the series)
Outline: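 Yeast FUS proteinopathy model; galactose-induced FUS (2%), starting OD 0.005. Cpds in dilution series, 24hr, 30C, 99% humidity. Abs 600 nm growth. Pos ctrl CP55940 (top 92uM final); neg ctrl DMSO.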
Potency is the fitted concentration of half-maximal effect; tags give direction and shape of the fitted curve.

| SMILES | Potency | growth rescue (activation) |
| --- | --- | --- |
| COc1ccc(CC(=O)Nc2c(C(=O)N3CCN(c4ccccc4)CC3)oc3ccccc23)cc1OC | inconclusive: 11.2 µM [activator, partial curve] | – |
| COc1cc(SC)ccc1C(=O)N1CCN(S(=O)(=O)/C=C/c2ccccc2)CC1 | inconclusive: 35.5 µM [activator, single point] | – |
| Cc1cccc2sc(NC(=O)C3CCN(C(=O)c4ccco4)CC3)nc12 | – | inactive: 26.8% |
| COc1cccc(NC(=O)NC2(C(F)(F)F)Oc3ccccc3O2)c1 | – | inconclusive: 97.5% [activator] |
| C[C@@H]1CN([C@H](C)CO)C(=O)c2cc(NC(=O)Nc3ccc(C(F)(F)F)cc3)ccc2O[C@H]1CN(C)S(=O)(=O)c1cccs1 | active: 10 µM | – |
| COc1cc(C(CC(=O)Nc2ccc(C)c(F)c2)N2Cc3ccccc3C2=O)cc(OC)c1OC (stereo unspecified) | – | inactive: -16.9% |
| O=C1C=C(O)CC(c2cccs2)C1 (stereo unspecified) | inconclusive: 15.8 µM [activator, partial curve, poor fit] | – |
| CC(C)CCN(C(=O)CNC(=O)c1ccco1)C(C(=O)NC1CCCCC1)c1ccco1 (stereo unspecified) | inconclusive: 20 µM [activator, single point] | – |
| O=C(NC1CCCCCCC1)c1ccc2c(c1)N(Cc1ccc(F)cc1)C(=O)CS2=O (stereo unspecified) | inconclusive: 10 µM [activator, partial curve, poor fit] | – |
| COC(=O)c1ccc2c(c1)NC(=O)C1CCCN21 (stereo unspecified) | inconclusive: 20 µM [activator, partial curve] | – |
| COc1ccc(-c2c(C#N)c(SCC(=O)c3cc4ccccc4oc3=O)nc(C)c2C(=O)Nc2ccccc2)cc1 | inconclusive: 4.47 µM [activator, full curve] | – |
| COc1cc2c(cc1NC(=O)C(C)Sc1ccc(NC(C)=O)cc1)oc1ccccc12 (stereo unspecified) | inconclusive: 25.1 µM [activator, partial curve] | – |
| CC(C)NC(=O)N[C@H]1C[C@@H]2O[C@H](CO)CC[C@@H]2O[C@@H]1CCc1ccc(-c2ccc(F)cc2)cc1 | inconclusive: 28.2 µM [activator, single point] | – |
| Cn1ccc2c(-c3ccc4c(c3)OCCO4)cc3c(c21)C1CCC3C1 (stereo unspecified) | – | inactive: 30.7% |
| Cc1ccc(N2CCN(C(=O)c3nn(C)c4c3CS(=O)(=O)c3ccccc3-4)CC2)c(C)c1 | active: 22.4 µM | – |
| CC(NC(=O)CCNC(=O)c1ccco1)c1ccccc1 (stereo unspecified) | inconclusive: 2.82 µM [activator, partial curve, poor fit] | – |
| Cc1ccc(-c2ccc(CN3C(C)C(=O)N(Cc4cn(Cc5ccco5)nn4)CCS3(=O)=O)cc2)c(C)c1 (stereo unspecified) | inconclusive: 17.8 µM [activator, single point] | – |
| CC(=O)Nc1ccc(NC(=O)c2oc3c(c2C)-c2nn(Cc4ccccc4Cl)cc2CC3)cc1 | inconclusive: 28.2 µM [activator, single point] | – |
| Cc1ccc(C)c(NC(=O)C(OC(=O)c2cnc(C)cn2)c2ccccc2)c1 (stereo unspecified) | – | inactive: -1.26% |
| CCOC(=O)c1ccc2c(c1)C1C=CCC1C(C(=O)OCC)N2 (stereo unspecified) | inconclusive: 20 µM [activator, partial curve] | – |
| COc1ccccc1Nc1nc(N)nc(CSC(=S)N2CC(C)CC(C)C2)n1 (stereo unspecified) | – | inactive: 25% |
| COc1ccc(S(=O)(=O)N/N=C\c2ccc3c(c2)OCO3)cc1 | inconclusive: 0.891 µM [activator, partial curve, poor fit] | – |

| SMILES | Potency | growth rescue (activation) |
| --- | --- | --- |
| Cc1ccc(Cl)cc1NC(=O)c1ccc(NC(=O)N2CCSc3ncccc32)cc1 | – | inactive: 12.2% |
| CC(C)(C)c1ccc(C(=O)NCCC(=O)Nc2cc(Cl)ccc2N2CCOCC2)cc1 | inconclusive: 25.1 µM [activator, single point] | – |
| CCOc1ccc(-n2cc(C(=O)Nc3cccc(Cl)c3)c3cc(OC)c(OC)cc3c2=O)cc1 | inconclusive: 31.6 µM [activator, partial curve, poor fit] | – |
| O=P(c1ccccc1)(c1ccccc1)c1nc(-c2ccc(Cl)cc2)oc1N1CCOCC1 | inconclusive: 31.6 µM [activator, single point] | – |
| COc1cccc2c1Oc1ncccc1N(c1ccc(C(=O)NCc3ccccc3C)s1)C2 | – | inactive: 33.8% |
| CCOC(=O)c1ccc(NC(=O)c2c(NC(=O)CCC(=O)O)sc3c2CCCCC3)cc1 | inconclusive: 28.2 µM [activator, partial curve, poor fit] | – |
| CCOc1ccc(Nc2c(S(=O)(=O)c3ccc(C)cc3)cnc3cc(OC)c(OC)cc23)cc1 | inconclusive: 50.1 µM [activator, single point] | – |
| CC(Sc1nnc(-c2ccccc2)c(-c2ccccc2)n1)C(=O)N1CCc2ccccc21 (stereo unspecified) | inconclusive: 22.4 µM [activator, partial curve, poor fit] | – |
| CCCCC1=CC2=C(c3ccco3)C(=O)C(C)(OC(=O)c3ccc(OC)cc3)C(=O)C2=CN1C1CCCCC1 (stereo unspecified) | inconclusive: 31.6 µM [activator, single point] | – |
| COc1cc(NS(=O)(=O)c2ccc3c(c2)CC(=O)N3)cc(OC)c1OC | inconclusive: 31.6 µM [activator, single point] | – |
| CCCCCNC(=O)C(c1cccc2ccccc12)n1c(=O)c(-c2cc3ccccc3[nH]2)nc2ccccc21 (stereo unspecified) | inconclusive: 35.5 µM [activator, single point] | – |
| COc1cccc(NC(=O)Nc2cccn(Cc3ccc(C)cc3)c2=O)c1 | – | inactive: 6.8% |
| NNC(=S)Nc1cc(S(=O)(=O)N2CCOCC2)ccc1N1CCOCC1 | inconclusive: 50.1 µM [activator, single point] | – |
| Cc1cccc(NC(=O)CSc2nc(=O)n(Cc3ccncc3)c3c2CCC3)c1C | – | inactive: 1.55% |
| Cc1cccc(NC(=O)Cc2coc3ccc4ccccc4c23)n1 | – | inactive: 15% |
| Cc1cccc(N2CCN(CC(O)COc3ccc4ccccc4c3)CC2)c1 (stereo unspecified) | – | inactive: -9.01% |
| CCOc1ccccc1C(=O)Nc1ccc2nc(C)[nH]c(=O)c2c1 | – | inactive: 9.55% |
| CCCCNC(=O)C(CC)Sc1nnc(-c2ccc(F)cc2)c(-c2ccc(F)cc2)n1 (stereo unspecified) | inconclusive: 20 µM [activator, partial curve, poor fit] | – |
| COCCn1c(C)cc(C2=NNC(=Nc3ccccc3)SC2)c1C | active: 10 µM | – |
| Cc1ccccc1-n1nc(-c2ccc(N)cc2)cc1N | inconclusive: 8.91 µM [activator, partial curve] | – |
| CC(C)Cn1c(=O)c(C(=O)N/N=C/c2cccc(F)c2)c(O)c2ccccc21 | inconclusive: 6.31 µM [activator, single point] | – |
| O=C(c1ccccc1)c1ccc(N2CCOCC2)c(NC(=O)c2ccco2)c1 | – | inactive: 20.2% |

| SMILES | Potency | growth rescue (activation) |
| --- | --- | --- |
| COc1cc(/C=C2\SC(=Nc3ccccc3)N(CCc3c[nH]c4ccccc34)C2=O)ccc1OC(C)C(=O)O (stereo unspecified) | inconclusive: 31.6 µM [activator, single point] | – |
| COc1ccc(-c2cc(C(=O)OCC(=O)NC3CC3)c3ccccc3n2)cc1 | inconclusive: 2.51 µM [activator, full curve] | – |
| CC1CCC(C(C)C)C(OC(=O)Cn2c(-c3ccccc3)[n+](C)c3ccccc32)C1 (stereo unspecified) | – | inactive: 22.7% |
| O=C1CC(c2ccc3ccccc3c2)N=C2N(Cc3ccc4c(c3)OCO4)C/C(=C/c3ccccc3)N12 (stereo unspecified) | inconclusive: 11.2 µM [activator, partial curve] | – |
| COc1ccc2[nH]c(C)c(CCN(Cc3cccs3)C(=S)Nc3ccc(F)cc3)c2c1 | inconclusive: 50.1 µM [activator, single point] | – |
| CCc1ccc(NC(=O)c2ccc3c(=O)n4nc(Nc5ccccc5C)sc4nc3c2)cc1 | – | inactive: -15.9% |
| CC(=O)NC1C(=O)N=C(SCC(=O)Nc2ccc(C(F)(F)F)cc2Cl)NC1=O (stereo unspecified) | – | inactive: -0.072% |
| Cc1ccc(C)c(NC(=O)Cn2nnc(-c3ccc(N4CCOCC4)cc3)n2)c1 | – | inactive: -24.3% |
| CCNC(=S)N(CCc1c(C)[nH]c2ccc(C)cc12)Cc1cc(OC)c(OC)c(OC)c1 | inconclusive: 39.8 µM [activator, partial curve, poor fit] | – |
| CCn1nccc1C(=O)Nc1cc(Cl)cc(Cl)c1 | – | inactive: -17.1% |
| Cc1sc2ncnc(-n3nnc4ccccc43)c2c1C | – | inactive: -3.24% |
| CCOC(=O)Cn1c(=O)oc2cc(S(=O)(=O)N3CCCc4ccccc43)ccc21 | inconclusive: 12.6 µM [activator, partial curve, poor fit] | – |
| Fc1ccc(NCc2nnc(SCc3nnc(-c4ccccc4)o3)n2CC2CCCO2)cc1 (stereo unspecified) | inconclusive: 50.1 µM [activator, single point] | – |
| CCc1cccc(NC(=O)c2cc3c(=O)[nH]c4ccccc4c3n2C)c1 | – | inactive: 17.5% |
| Cc1nc(Cl)sc1C(=O)Nc1cccc(Cl)c1 | – | inactive: -0.359% |
| CC1CC(C)CN(C(=O)C2CCN(c3cncnc3)CC2)C1 (stereo unspecified) | – | inactive: -4.49% |
| CCOC(=O)c1ccc(NC(=O)c2nc[nH]c2C(=O)NCCCCCNC(=O)OC(C)(C)C)cc1 | inconclusive: 8.91 µM [activator, partial curve] | – |
| COc1cc2c(cc1NC(=O)CSc1nnc(-c3ccccc3C)n1Cc1ccco1)oc1ccccc12 | inconclusive: 12.6 µM [activator, partial curve, poor fit] | – |
| O=C(Nc1nnc(SCc2ccccn2)s1)C1CC(=O)N(c2ccc(F)cc2)C1 (stereo unspecified) | inconclusive: 22.4 µM [activator, partial curve, poor fit] | – |
| CC(=O)N1CCOc2ccc(S(=O)(=O)N3CCN(c4cc(C)ccc4C)CC3)cc21 | inconclusive: 31.6 µM [activator, single point] | – |
| N#Cc1nc(-c2cccs2)oc1NCc1ccc2c(c1)OCO2 | – | inactive: 9.83% |
| Cc1noc(C)c1CSc1nc2[nH]ncc2c(=O)n1-c1ccccc1 | inconclusive: 5.62 µM [activator, partial curve, poor fit] | – |
